Measurements: PubChem BioAssay AID686970 (National Center for Advancing Translational Sciences (NCATS), 2013)
Screen size: about 360,000 compounds; about 6,000 (1.7%) were called active. Inconclusive means that the source gave no clear call. Such entries were picked first, then a sample of the others. Calls follow the shape of the dose curve; as a rule, active = well fitted cell-killing curve with a large enough effect; inconclusive = small, poorly fitted or top-dose-only effect, or effect the other way; inactive = flat fitted curve, though single readings scatter. Potencies of inconclusive entries are left out as doubtful fits.

Test: qHTS for induction of synthetic lethality in tumor cells producing 2HG: qHTS for the HT-1080-NT fibrosarcoma cell line;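 also: NT is the 2HG producing partner of a matched IDH1 knockdown line; nearly all actives have a fitted effect of over 55% in size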;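 as to activity, negative = less viability: 0% = DMSO-treated cells and -100% = media-only wells without cells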
Conditions: HT-1080-NT fibrosarcoma viability, CellTiter-Glo ATP luminescence, 48 h; activity, negative = less viability: at 46.1 µM (top of the series) unless noted
How it was run: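 Toxicity toward the 2HG-producing NT line was scored as %Activity, normalised to DMSO and no-cell wells, from CellTiter-Glo luminescence after 48 hours' treatment.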
Potency is read from the fitted curve at half-maximal effect; tags tell the direction and shape of the fitted curve.

Compound | Potency | activity, negative = less viability
COc1ccc(-c2coc3c(C(=O)NCc4ccc(C(F)(F)F)cc4)cccc23)c(C)c1 | inconclusive [cytotoxic, single point] | 
CCOC(=O)c1cc2c(=Cc3ccc(N(C)C)cc3)c3ccccc3n2[n+]1C | inconclusive [cytotoxic, partial curve] | 
CCc1ccccc1N(CC(=O)NC(C)C)C(=O)CCC(=O)Nc1nccs1 |  | inactive: 5.89%
COc1ccc(S(=O)(=O)N2c3ccccc3OCC2CC(=O)O)cc1 (centres undefined) | inconclusive [cytotoxic, single point] | 
CSCC[C@H](NC(=O)OC(C)(C)C)C(=O)N1CCC(C(=O)N[C@@H](Cc2c[nH]c3ccccc23)C(=O)O)CC1 |  | inactive: 5.49%
C=CC[C@H](CC(=O)N(CCO)Cc1ccccc1)C(=O)NC[C@H](OC(=O)[C@@H](CC=C)Cc1ccc(F)cc1)c1ccccc1 | inconclusive [cytotoxic, single point] | 
Cc1cc(C)n(-c2nc3ccccc3c(=O)n2OCCOc2ccccc2)n1 | inconclusive [rising, full curve] | 
CN(C)CCCC1Sc2ccccc2Sc2ccccc21 (centres undefined) | active: 23.1 µM | 
Cc1csc2nc(O)c(C(=O)NCCC3=CCCCC3)c(=O)n12 |  | inactive: 0.511%
CC(C)CCNCC(O)CON=C1c2ccccc2-c2ccccc21 (centres undefined) | inconclusive [cytotoxic, partial curve] | 
Cc1cc(C)nc(NC(=O)/C=C/c2ccc3c(c2)OCO3)c1 | inconclusive [cytotoxic, partial curve] | 
CCC(=O)OCOc1ccc(/C=C2/CCC(CN(C)C)C2=O)cc1 (centres undefined) | inconclusive [cytotoxic, single point] | 
COC(=O)COc1ccc2c(=O)c(Oc3ccccc3Br)coc2c1 | inconclusive [rising, single point] | 
CCOC(=O)CN1C(=O)S/C(=C/c2ccc(O)c([N+](=O)[O-])c2)C1=O | active: 18.4 µM | 
CC(C)(Cc1ccc(O)cc1)NC(=O)CC(=O)N/N=C/c1ccc([N+](=O)[O-])cc1 |  | inactive: 0.344%
Cc1ccc(C(=O)Nc2nc(-c3ccccn3)cs2)cc1S(=O)(=O)N1CCOCC1 | active: 18.4 µM | 
OC(CNc1nc(-c2cccnc2)nc2ccccc12)c1ccccc1 (centres undefined) | inconclusive [cytotoxic, single point] | 
O=C(Nc1ccccc1N1CCCCC1)C1CCN(C(=O)c2ccc(Cl)cc2)CC1 |  | inactive: -5.49%
CC1C(=O)N(Cc2cn(Cc3ccco3)nn2)CCS(=O)(=O)N1Cc1ccc(-c2ccc(Cl)c(Cl)c2)cc1 (centres undefined) | inconclusive [cytotoxic, single point] | 
